Hit rate of the full screen: of about 230,000 compounds, about 3,600 (1.6%) were called active. The inconclusive results got no clear call from the source; some entries with a clear call stand among them for comparison. The call rests on the fitted dose curve; in most records, active means well fitted inhibition curve with a large enough effect (not every such curve was filed as active); inconclusive means small, poorly fitted or top-dose-only effect, or another doubt; inactive means no such curve, though single readings can be large or run the other way. Potencies beside an inconclusive call are fits to weak or partial responses and may not hold up.
Target: Lysine-specific demethylase 4E (Homo sapiens) (UniProt B2RXH2)
UniProt B2RXH2, sequence (B2RXH2 whole entry, looked up, the tested form may be a part): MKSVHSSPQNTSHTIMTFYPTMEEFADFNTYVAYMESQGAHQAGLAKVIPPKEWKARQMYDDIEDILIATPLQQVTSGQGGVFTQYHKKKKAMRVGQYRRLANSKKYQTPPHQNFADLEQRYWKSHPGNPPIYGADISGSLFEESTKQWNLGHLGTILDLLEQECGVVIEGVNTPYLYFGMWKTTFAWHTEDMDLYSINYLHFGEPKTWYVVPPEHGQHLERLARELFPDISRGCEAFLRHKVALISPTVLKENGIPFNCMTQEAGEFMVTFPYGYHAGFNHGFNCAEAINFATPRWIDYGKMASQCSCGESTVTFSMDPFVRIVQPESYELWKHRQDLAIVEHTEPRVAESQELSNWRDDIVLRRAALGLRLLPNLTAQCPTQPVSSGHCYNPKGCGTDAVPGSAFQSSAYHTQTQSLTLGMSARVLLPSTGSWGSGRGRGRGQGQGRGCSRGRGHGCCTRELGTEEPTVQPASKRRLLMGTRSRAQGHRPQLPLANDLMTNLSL
Assay: qHTS Assay for Inhibitors of Human Jumonji Domain Containing 2E (JMJD2E)
Details: JMJD2E catalytic domain, FDH-coupled NADH fluorescence (FDH is formaldehyde dehydrogenase); series mostly up to 57.1 µM
Further: nearly all actives have a fitted effect of over 50% in size.
Potency means the concentration at half of the fitted maximal effect; tags describe the fitted curve by direction and shape.

SMILES | Potency
CC1=NNC(=O)c2ccccc2O1 | inconclusive: 35.5 µM [inhibitor, single point]
C(=N\Nc1ncnc2sc3c(c12)CCC3)/c1ccncc1 | inconclusive: 35.5 µM [inhibitor, single point]
CCn1c(SCC(=O)Nc2nc(C)c(C)s2)nc2cccnc21 | inconclusive: 35.5 µM [inhibitor, single point]
COc1ccc(-c2cc(-c3cccnc3)c(C#N)c(N)n2)cc1 | inconclusive: 10 µM [inhibitor, partial curve]
O=C(Nc1ccc2c(c1)C(=O)N(CC1CCCO1)C2=O)c1cccc(Br)c1 (stereo not given) | inconclusive: 31.6 µM [inhibitor, partial curve]
O=C(OCCNc1nc(-c2ccccc2)nc2ccccc12)c1ccncc1 | inconclusive: 35.5 µM [inhibitor, single point]
CCC(=O)NC(c1ccc(OC)cc1)c1c(O)ccc2ccccc12 (stereo not given) | inconclusive: 20 µM [inhibitor, partial curve]
Cc1ccc(C(=O)CN(Cc2ccccc2)C2=NCCS2)cc1 | inactive
CCCCN(C)C(=O)c1nc2ccccn2c1CN1CCC[C@H]1C(=O)OC | inactive
S=c1[nH]c2ncccc2o1 | inactive
CSc1ccc(/C=C(/NC(=O)c2ccc(C)cc2)C(=O)Nc2cccc(C)c2)cc1 | inconclusive: 35.5 µM [inhibitor, single point]
COc1ccc(NC(=O)c2cccc(F)c2)cc1Cl | inactive
CC1Oc2ccccc2C=C1/C=N/Nc1ccc(C(=O)O)cc1 (stereo not given) | inconclusive: 35.5 µM [inhibitor, single point]
CCOC(=O)N1CCC(N2CCN(S(=O)(=O)c3ccc(OC)cc3)CC2)CC1 | inactive
CCC1(C)NC(=O)N(CC(=O)Nc2sc3c(c2C(N)=O)CCC3)C1=O (stereo not given) | inconclusive: 25.1 µM [inhibitor, partial curve]
O=[N+]([O-])c1ccccc1S(=O)(=O)n1nnc2ccccc21 | inactive
O=C(Nc1ccc(-c2nc3ccccc3s2)c(OC(=O)c2ccccc2)c1)c1ccccc1 | inconclusive: 25.1 µM [inhibitor, partial curve]
O=C(NO)c1cc(OCC(F)(F)F)ccc1OCC(F)(F)F | inconclusive: 35.5 µM [inhibitor, single point]
COC(=O)c1ccc2c(c1)C(C)(C)C(/C=C/c1ccc(O)cc1)=[N+]2C | inactive
CCOC(=O)c1c(-c2ccccc2)oc2ccc(OC(C)C(=O)O)cc12 (stereo not given) | inconclusive: 31.6 µM [inhibitor, partial curve]
CCOc1ccc(OCCCCN(C)C)cc1 | inconclusive: 31.6 µM [inhibitor, single point]
CN(C)c1ccc(C=Nc2ccccc2)cc1 | inconclusive: 35.5 µM [inhibitor, single point]
CCOC(=O)C1CCN(C(=O)c2c(-c3ccccc3)noc2C)CC1 | inconclusive: 39.8 µM [inhibitor, single point]
O=C(Nc1ccc(F)cc1F)c1cc2ncc(Br)cn2n1 | inconclusive: 22.4 µM [inhibitor, single point]

SMILES | Potency
O=P1(O)Oc2c(-c3ccccc3)cc3ccccc3c2-c2c(c(-c3ccccc3)cc3ccccc23)O1 | inconclusive: 35.5 µM [inhibitor, single point]
O=C(CSc1nc2c(cnn2-c2ccc(F)cc2)c(=O)[nH]1)N1N=C(c2cccs2)CC1c1ccc(F)cc1 (stereo not given) | active: 5.01 µM
CCOC(=O)N1CCN(c2c(NCCc3ccc(OC)c(OC)c3)c(=O)c2=O)CC1 | inactive
O=C(OCC(=O)N1CCCCC1)c1cc(NS(=O)(=O)c2ccc(Cl)c([N+](=O)[O-])c2)ccc1O | inactive
CCOC(=O)N1CCN(C(=O)C(C)n2nc(C)n3c(cc4sccc43)c2=O)CC1 (stereo not given) | inconclusive: 17.8 µM [inhibitor, partial curve]
CCN(CC)C(=O)Oc1c(Cl)cc(Cl)c2cccnc12 | inconclusive: 39.8 µM [inhibitor, single point]
COc1ccc(-c2csc(-c3ccc(C(=O)O)cc3)n2)cc1 | inconclusive: 31.6 µM [inhibitor, partial curve]
Fc1ccccc1COc1ccc2ccccc2c1CNc1nn[nH]n1 | inconclusive: 39.8 µM [inhibitor, single point]
S=C(Nc1cccc2ccccc12)N1CCN(c2ncccn2)CC1 | inconclusive: 35.5 µM [inhibitor, single point]
O=c1/c(=C\c2cccnc2)sc2nc3ccccc3n12 | inactive
CN(Cc1ccccc1)c1ccc(S(=O)(=O)N2CCC(C(=O)O)CC2)cc1[N+](=O)[O-] | inactive
CCCCn1c(NC(=O)c2ccco2)c(S(=O)(=O)c2ccc(C)cc2)c2nc3ccccc3nc21 | inconclusive: 28.2 µM [inhibitor, partial curve]
Cc1cc(C(=O)Nc2nc(-c3ccccn3)cs2)ccc1[N+](=O)[O-] | inconclusive: 39.8 µM [inhibitor, single point]
COc1cc2c(cc1OC)CN(CC(=O)Nc1cccc(C)c1)CC2 | inconclusive: 35.5 µM [inhibitor, single point]
CC(=O)Nc1cccc(NC(=O)CSc2nnc(Cc3cccn3C)n2CCc2ccccc2)c1 | inactive
CC(C)c1cc(C(=O)N/N=C/c2c[nH]c3ccccc23)n[nH]1 | inactive
COc1ccc(Cn2c(/C=C/c3ccccc3)nc3ccccc32)cc1 | inconclusive: 31.6 µM [inhibitor, partial curve]
Cc1ccc(C2C(C#N)=C(N)Oc3cc4c(cc32)OCO4)cc1 (stereo not given) | inconclusive: 35.5 µM [inhibitor, single point]
CCc1cc(C(=O)Cc2nc3ccccc3s2)c(O)cc1OCC(=O)O | inconclusive: 3.98 µM [inhibitor, full curve]
CCOC(=O)N/N=C\c1ccc(-c2cccc(C(F)(F)F)c2)o1 | inactive
Cc1cc(C)c(C)c(S(=O)(=O)ON2C(=O)c3ccccc3C2=O)c1C | inconclusive: 22.4 µM [inhibitor, partial curve]
COc1ccc(C2C=C(c3ccccc3)Nc3ncnn32)cc1 (stereo not given) | inconclusive: 31.6 µM [inhibitor, partial curve]
COc1cc(/C=C/C(=O)Nc2ccc(N3CCCCC3)c(S(=O)(=O)Nc3ccccc3Cl)c2)cc(OC)c1OC | inconclusive: 22.4 µM [inhibitor, partial curve]
Cc1cc(N2CCOCC2)nc2ccc(NC(=S)N3CCN(c4ccccc4)CC3)cc12 | inconclusive: 22.4 µM [inhibitor, partial curve]

SMILES | Potency
Cc1ccc(CNC(=O)CCCn2c(=O)[nH]c3ccccc3c2=O)cc1 | inconclusive: 39.8 µM [inhibitor, single point]
COc1ccc(-c2cc(N)n(S(=O)(=O)c3ccc(C)cc3)n2)c(OC)c1 | inconclusive: 0.708 µM [inhibitor, single point]
COc1cc(OC)cc(-c2nc3ccccc3c(=O)n2OC(=O)c2ccc(C)c(C)c2)c1 | inconclusive: 39.8 µM [inhibitor, single point]
CC(=O)Oc1ccc2ccccc2c1C(NC(=O)Cc1ccccc1)c1ccc(Cl)cc1 (stereo not given) | inactive
Cn1nc([N+](=O)[O-])nc1Oc1ccccc1F | inactive
O=c1[nH]c2ccc(Cl)cc2c(-c2ccccc2)c1N1CCOCC1 | inactive
CC(Sc1nnc(-c2ccccc2)c(-c2ccccc2)n1)C(=O)Nc1ncc(Cl)cc1Cl (stereo not given) | inconclusive: 28.2 µM [inhibitor, partial curve]
C=CCNC(=O)c1ccc2c3n(nc2c1)-c1ccccc1CO3 | inconclusive: 22.4 µM [inhibitor, partial curve]
O=C(OCC(=O)c1cccs1)c1ccccc1 | inactive
Cc1ccc(C)c(S(=O)(=O)Nc2ccccc2C(=O)Nc2cc(C)on2)c1 | inconclusive: 28.2 µM [inhibitor, partial curve]
CC1=C(C(=O)N(C)C)C(c2ccc(N3CCOCC3)cc2)NC(=O)N1 (stereo not given) | inactive
CCN(CC)C(=O)C1CCCN(Cc2ccccc2C(F)(F)F)C1 (stereo not given) | inconclusive: 22.4 µM [inhibitor, single point]
O=C(CCCc1c[nH]c2ccccc12)N1CCN(c2ccc(N3CCOCC3)nn2)CC1 | inconclusive: 28.2 µM [inhibitor, partial curve]
c1nc2sc3c(c2c2nnnn12)CCC3 | inconclusive: 28.2 µM [inhibitor, partial curve]
Cc1ccc(S(=O)(=O)N2CC=C(C(=O)NCc3ccccc3)CC2)cc1 | inactive
C=CCOC(=O)C1=C(C)NC(SCC(=O)OCC)=C(C#N)C1c1ccc(C)cc1 (stereo not given) | inconclusive: 25.1 µM [inhibitor, single point]
CCC(=O)OCCn1c(=O)c2ccccc2c2ccccc2c1=O | inconclusive: 39.8 µM [inhibitor, single point]
COc1ccccc1N(C1=NCCCS1)S(=O)(=O)c1ccc(C(C)(C)C)cc1 | inactive
O=C(COC(=O)c1c2c(nc3ccccc13)/C(=C/c1ccco1)CC2)NC1CCCC1 | active: 25.1 µM
Cc1ccc(CSc2nnc(-c3ccc(S(=O)(=O)N4CCCC4)cc3)o2)cc1 | inactive
O=C(O)COc1ccc(Br)cc1/C=C1/SC(=O)N(CC(=O)N2CCCC2)C1=O | inconclusive: 39.8 µM [inhibitor, single point]
COc1ccc(/C=C(\C#N)C(=O)OCC(=O)NCc2ccccc2)cc1 | inconclusive: 17.8 µM [inhibitor, partial curve]

— PubChem BioAssay AID2147 (National Center for Advancing Translational Sciences (NCATS), 2009)
